# Assay results: PubChem BioAssay AID686979 (National Center for Advancing Translational Sciences (NCATS), 2013)
# Where “and” joins values, the source holds several entries; their conditions need not be identical. Identical values can stand only once. The whole screen tested about 420,000 compounds, of which about 50,000 (12%) were called active. The inconclusive results got no clear call from the source; some entries with a clear call stand among them for comparison. Calls follow the shape of the dose curve; as a rule, active = well fitted inhibition curve with a large enough effect; inconclusive = small, poorly fitted or top-dose-only effect; inactive = flat fitted curve, though single readings scatter. Potencies of inconclusive entries are doubtful fits and often do not repeat.
# Assay: qHTS for Inhibitors of human tyrosyl-DNA phosphodiesterase 1 (TDP1): qHTS in cells in presence of CPT; also: nearly all actives have a fitted effect of over 55% in size
# Details: chicken DT40 Tdp1-/-;hTDP1 cells + 20 nM CPT, ATP luminescence, 48 h; activity change, negative = growth inhibition: at 46.2 µM (top of the series)
# Summary of the method: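 Cell growth measured by CellTiter-Glo luminescence after a minimum 48 h, 37 C compound exposure with 20 nM CPT in Tdp1-knockout DT40 cells stably expressing hTDP1, seeded 400/well; qHTS titration format.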
# % is scaled to controls: 0 for no effect and ±100 for the full control effect; potency is read from the fitted curve at half-maximal effect; tags tell the direction and shape of the fitted curve.
SMILES,Potency,"activity change, negative = growth inhibition"
COc1ccc(C)cc1-n1c(SCC(=O)NCc2ccco2)nc2c([nH]c3ccccc32)c1=O,"inconclusive: 29.1 µM [inhibitor, single point]",–
COc1ccc(C(=O)N(CN2CCCC2=O)c2ccc(C)cc2)cc1,"inconclusive: 16.4 µM [inhibitor, partial curve, poor fit]",–
COc1ccc(CC(=O)Nc2nnc3n2CCS3)cc1OC,–,inactive: -12.5%
CCc1ccccc1NC(=O)Cn1nnc(C(=O)NCc2cccc(OC)c2)c1N,"inconclusive: 18.4 µM [inhibitor, single point] and inconclusive: 20.6 µM [inhibitor, single point]",–
CC(C)c1nnc(NC(=O)CS(=O)(=O)c2ccccc2)s1,"inconclusive: 1.03 µM [inhibitor, full curve, poor fit]",–
COC(=O)[C@@]12CCCN1[C@H](c1ccc(-c3ccccc3)c(OC)c1)[C@H]1C(=O)N(C)C(=O)[C@H]12,"inconclusive: 29.1 µM [inhibitor, single point]",–
Cc1ccc(NC(=O)Cn2c(=O)n(CC(=O)NCCc3ccccc3)c(=O)c3ccccc32)cc1,–,inactive: -24.5%
COc1cccc(C(=O)NNC(=S)NC2CCCCC2)c1,active: 16.4 µM,–
CC1CCc2nc3ncn(Cc4cccc(F)c4)c(=O)c3cc2C1 (centres undefined),"inconclusive: 23.1 µM [inhibitor, single point]",–
Cc1ccc(Cn2ncc3c(N4CCN(c5ccccc5C)CC4)ncnc32)cc1,active: 23.1 µM,–
CCCCOC(=O)c1ccc(NC(=S)NC(=O)c2c(Cl)cnn2C)cc1,active: 23.1 µM,–
O=C(Nc1ncc(Cc2ccccc2Cl)s1)c1ccc2c(c1)CC(c1ccccc1)OC2=O (centres undefined),–,inactive: -21.8%
N#C/C(=C(/O)COC(=O)COc1cccc(Br)c1)c1nc2ccccc2[nH]1,"inconclusive: 29.1 µM [inhibitor, single point]",–
CCCCN(CC)CCCNC(=O)c1nn(-c2ccc(OC)cc2)c(=O)c2c1c1ccccc1n2C,–,inactive: -9.39%
Cc1nc(NC(=O)C(C)(C)C)sc1C(=O)Cn1cc(-c2ccc(C(C)(C)C)cc2)nn1,"inconclusive: 20.6 µM [inhibitor, single point]",–
CN(C)c1nc(OCC(=O)NC(C)(C)C)nc(N(C)C)n1,–,inactive: 3.55%
c1ccc2nc(SCc3cn4ccccc4n3)cnc2c1,"inconclusive: 29.1 µM [inhibitor, single point]",–
COc1cc(OC)cc(C(=O)N[C@H](C(=O)OCC(=O)Nc2ccc(C(C)C)cc2)C(C)C)c1,–,inactive: 12%
CN1CCN(c2ncc3nc(-c4cccc(C#N)c4)c(=O)n(C)c3n2)CC1,"inconclusive: 18.4 µM [inhibitor, single point]",–
